# Test results published in patent US7592316B2, “Peptides as NS3-serine protease inhibitors of hepatitis C virus” (Schering Corporation, priority 2000, dated 2009).
# Target: HCV NS3/NS4A protease (strain 1a) (Hepatitis C virus genotype 1a, UniProt P27958)
# Assay: biochemical
# Details: Table 6; HCV NS3/NS4A protease, 30° C., pH 6.5; read-out: Ki*
row,SMILES,Ki [nM]
1,C=CCCC(NC(=O)[C@@H]1[C@@H]2[C@H](CN1C(=O)[C@@H](NC(=O)NC(C)(C)C)C(C)(C)C)C2(C)C)C(=O)C(=O)NCCC(=O)NCc1ccccc1 (stereo partly drawn),1 to 100
2,CCCC(NC(=O)[C@@H]1[C@@H]2[C@H](CN1C(=O)[C@@H](NC(=O)OC1CCC[C@@H]1C)C1CCCCC1)C2(Cl)Cl)C(=O)C(N)=O (stereo partly drawn),1 to 100
3,C=CCCC(NC(=O)[C@@H]1[C@@H]2[C@H](CN1C(=O)[C@@H](NC(=O)OC(C)(C)C)C1CCCCC1)C2(C)C)C(=O)C(=O)NCCS(=O)(=O)N(C)C(C)(C)C (stereo partly drawn),1 to 100
4,C=CCCC(NC(=O)[C@@H]1[C@@H]2[C@H](CN1C(=O)[C@@H](NC(=O)OC(C)(C)C)C1CCCCC1)C2(C)C)C(=O)C(=O)NCCS(=O)(=O)NC(C)(C)C (stereo partly drawn),101 to 1000
5,CCCC(NC(=O)[C@@H]1[C@@H]2[C@H](CN1C(=O)[C@@H](NC(=O)OC(C)(C)C)C1Cc3ccccc3C1)C2(C)C)C(=O)C(=O)NCc1ccccc1 (stereo partly drawn),101 to 1000
6,C=CCNC(=O)C(=O)C(CCC)NC(=O)[C@@H]1[C@@H]2[C@H](CN1C(=O)[C@@H](NC(=O)OC1CCC[C@@H]1C)C1CCCC1)C2(C)C (stereo partly drawn),1 to 100
7,CCC[C@@H](NC(=O)[C@@H]1[C@@H]2[C@H](CN1C(=O)[C@@H](NC(=O)OC(C)(C)C)C1CCCCC1)C2(C)C)C(=O)C(=O)NCC(=O)N[C@H](CC(=O)N(C)C)c1ccccc1,1 to 100
8,Cc1ccc(S(=O)(=O)CNC(=O)C(=O)C(CC2CCC2)NC(=O)[C@@H]2[C@@H]3[C@H](CN2C(=O)[C@@H](NC(=O)OC(C)(C)C)C2CCCCC2)C3(C)C)cc1 (stereo partly drawn),101 to 1000
9,CC(NC(=O)N[C@H](C(=O)N1C[C@H]2[C@@H]([C@H]1C(=O)NC(CC1CCC1)C(=O)C(N)=O)C2(C)C)C(C)(C)C)C(F)(F)F (stereo partly drawn),1 to 100
10,CC(=O)OCC(NC(=O)N[C@H](C(=O)N1C[C@H]2[C@@H]([C@H]1C(=O)NC(CC1CCC1)C(=O)C(N)=O)C2(Cl)Cl)C1CCCCC1)C(C)(C)C (stereo partly drawn),1 to 100
11,CC(C)(C)[C@H](NC(=O)N[C@H](CO)C(C)(C)C)C(=O)N1C[C@H]2[C@@H]([C@H]1C(=O)NC(CC1CCC1)C(=O)C(N)=O)C2(Cl)Cl (stereo partly drawn),101 to 1000
12,C#CC1(NC(=O)N[C@H](C(=O)N2C[C@H]3[C@@H]([C@H]2C(=O)NC(CC2CC2)C(=O)C(N)=O)C3(C)C)C(C)(C)C)CCCCC1 (stereo partly drawn),1 to 100
13,C#CC1(NC(=O)N[C@H](C(=O)N2C[C@H]3[C@@H]([C@H]2C(=O)NC(CC2CC2)C(=O)C(N)=O)C3(C)C)C2CCCCC2)CCCCC1 (stereo partly drawn),1 to 100
14,CC(C)(C)NC(=O)N[C@H](C(=O)N1C[C@H]2[C@@H]([C@H]1C(=O)NC(CC1CCC1)C(=O)C(N)=O)C21CCCC1)C(C)(C)C (stereo partly drawn),101 to 1000
15,CCC(F)(F)CC(NC(=O)[C@@H]1[C@@H]2[C@H](CN1C(=O)[C@@H](NC(=O)OC(C)(C)C)C1CCCCC1)C2(C)C)C(=O)C(=O)O (stereo partly drawn),101 to 1000
16,CCC(F)(F)CC(NC(=O)[C@@H]1[C@@H]2[C@H](CN1C(=O)[C@@H](NC(=O)NC(C)(C)C)C(C)(C)C)C2(C)C)C(=O)C(=O)O (stereo partly drawn),101 to 1000
17,CCC(F)(F)CC(NC(=O)[C@@H]1[C@@H]2[C@H](CN1C(=O)[C@@H](NC(=O)OC(C)(C)C)C1CCCCC1)C2(C)C)C(=O)C(N)=O (stereo partly drawn),101 to 1000
18,CCC(F)(F)CC(NC(=O)[C@@H]1[C@@H]2[C@H](CN1C(=O)[C@@H](NC(=O)NC(C)(C)C)C(C)(C)C)C2(C)C)C(=O)C(N)=O (stereo partly drawn),101 to 1000
19,COC(=O)[C@@H](NC(=O)N[C@H](C(=O)N1C[C@H]2[C@@H]([C@H]1C(=O)NC(CC1CCC1)C(=O)C(N)=O)C2(Cl)Cl)C(C)(C)C)C(C)(C)O (stereo partly drawn),101 to 1000

row,SMILES,Ki [nM]
1,C#CC1(NC(=O)N[C@H](C(=O)N2C[C@H]3[C@@H]([C@H]2C(=O)NC(CC2CCC2)C(=O)C(N)=O)C3(C)C)C(C)(C)C)CCCCC1 (stereo partly drawn),1 to 100
2,CC(C)(C)[C@@H](CO)NC(=O)N[C@H](C(=O)N1C[C@H]2[C@@H]([C@H]1C(=O)NC(CC1CCC1)C(=O)C(N)=O)C2(Cl)Cl)C1CCCCC1 (stereo partly drawn),101 to 1000
3,CC(C)(C)OC(=O)N[C@H](C(=O)N1C[C@H]2[C@@H]([C@H]1C(=O)N[C@H](CC1CCC1)C(=O)C(N)=O)C2(Cl)Cl)C(C)(C)C,> 1000
4,CC(C)(C)OC(=O)N[C@H](C(=O)N1C[C@H]2[C@@H]([C@H]1C(=O)N[C@@H](CC1CCC1)C(=O)C(N)=O)C2(Cl)Cl)C(C)(C)C,1 to 100
5,CCC1(NC(=O)N[C@H](C(=O)N2C[C@H]3[C@@H]([C@H]2C(=O)NC(CC2CC2)C(=O)C(N)=O)C3(C)C)C2CCCCC2)CCCCC1 (stereo partly drawn),1 to 100
6,CCC1(NC(=O)N[C@H](C(=O)N2C[C@H]3[C@@H]([C@H]2C(=O)NC(CC2CC2)C(=O)C(N)=O)C3(C)C)C(C)(C)C)CCCCC1 (stereo partly drawn),1 to 100
7,CC(C)(CF)NC(=O)N[C@H](C(=O)N1C[C@H]2[C@@H]([C@H]1C(=O)NC(CC1CC1)C(=O)C(N)=O)C2(C)C)C(C)(C)C (stereo partly drawn),1 to 100
8,CCC1(NC(=O)N[C@H](C(=O)N2C[C@H]3[C@@H]([C@H]2C(=O)NC(CC2CCC2)C(=O)C(N)=O)C3(C)C)C(C)(C)C)CCCCC1 (stereo partly drawn),1 to 100
9,CC(C)(CF)NC(=O)N[C@H](C(=O)N1C[C@H]2[C@@H]([C@H]1C(=O)NC(CC1CC1)C(=O)C(N)=O)C2(C)C)C1CCCCC1 (stereo partly drawn),1 to 100
10,CC(C)(CF)NC(=O)N[C@H](C(=O)N1C[C@H]2[C@@H]([C@H]1C(=O)NC(CC1CCC1)C(=O)C(N)=O)C2(C)C)C(C)(C)C (stereo partly drawn),1 to 100
11,CC1C[C@H]2CN(C(=O)[C@@H](NC(=O)OC(C)(C)C)C(C)(C)C)[C@H](C(=O)NC(CC3CCC3)C(=O)C(=O)NCC(=O)N[C@H](C(=O)N(C)C)c3ccccc3)[C@H]2CC1C (stereo partly drawn),1 to 100
12,CC1C[C@H]2CN(C(=O)[C@@H](NC(=O)OC(C)(C)C)C(C)(C)C)[C@H](C(=O)NC(CC3CCC3)C(=O)C(N)=O)[C@H]2CC1C (stereo partly drawn),101 to 1000
13,C[C@@H](NC(=O)N[C@H](C(=O)N1C[C@H]2C([C@H]1C(=O)NC(CC1CC1)C(=O)C(N)=O)C2(C)C)C(C)(C)C)C(C)(C)C (stereo partly drawn),1 to 100
14,CC1(C)C2[C@@H](C(=O)NC(CC3CCC3)C(=O)C(N)=O)N(C(=O)[C@@H](NC(=O)[C@@H]3CSC(=O)N3)C3CCCCC3)C[C@@H]21 (stereo partly drawn),1 to 100
15,CC1(C)C2[C@@H](C(=O)NC(CC3CCC3)C(=O)C(N)=O)N(C(=O)[C@@H](NC(=O)C3CCC(=O)O3)C3CCCCC3)C[C@@H]21 (stereo partly drawn),1 to 100
16,CC(=O)N[C@H](C(=O)N[C@H](C(=O)N1C[C@H]2C([C@H]1C(=O)NC(CC1CCC1)C(=O)C(N)=O)C2(C)C)C1CCCCC1)c1ccccc1 (stereo partly drawn),1 to 100
17,CC1(C)C2[C@@H](C(=O)NC(CC3CCC3)C(=O)C(N)=O)N(C(=O)[C@@H](NC(=O)C3CC(=O)c4ccccc43)C3CCCCC3)C[C@@H]21 (stereo partly drawn),101 to 1000
18,CC1(C)C2[C@@H](C(=O)NC(CC3CCC3)C(=O)C(N)=O)N(C(=O)[C@@H](NC(=O)C3OC(=O)c4ccccc43)C3CCCCC3)C[C@@H]21 (stereo partly drawn),1 to 100
19,CC1(NC(=O)N[C@H](C(=O)N2C[C@H]3[C@@H]([C@H]2C(=O)NC(CC2CC2)C(=O)C(=O)NCC(=O)NCc2ccccc2)C3(C)C)C(C)(C)C)CCCCC1 (stereo partly drawn),1 to 100

row,SMILES,Ki [nM]
1,CC(C)(CF)NC(=O)N[C@H](C(=O)N1C[C@H]2[C@@H]([C@H]1C(=O)NC(CC1CC1)C(=O)C(=O)NCC(=O)NCc1ccccc1)C2(C)C)C(C)(C)C (stereo partly drawn),1 to 100
2,C[C@@H](NC(=O)N[C@H](C(=O)N1C[C@H]2[C@@H]([C@H]1C(=O)NC(CC1CCC1)C(=O)C(N)=O)C2(C)C)C(C)(C)C)C(C)(C)C (stereo partly drawn),1 to 100
3,CN(C)C(=O)[C@@H](NC(=O)CNC(=O)C(=O)C(CCC(F)(F)F)NC(=O)[C@@H]1[C@H]2CC(C)(C)O[C@H]2CN1C(=O)[C@@H](NC(=O)OC(C)(C)C)C(C)(C)C)c1ccccc1 (stereo partly drawn),1 to 100
4,COC[C@@H](NC(=O)N[C@H](C(=O)N1C[C@H]2[C@@H]([C@H]1C(=O)NC(CC1CC1)C(=O)C(N)=O)C2(Cl)Cl)C(C)(C)C)C(C)(C)C (stereo partly drawn),1 to 100
5,COC[C@@H](NC(=O)N[C@H](C(=O)N1C[C@H]2[C@@H]([C@H]1C(=O)NC(CC1CCC1)C(=O)C(N)=O)C2(Cl)Cl)C(C)(C)C)C(C)(C)C (stereo partly drawn),1 to 100
6,CC(C)(C)NC(=O)N[C@H](C(=O)N1C[C@H]2[C@@H]([C@H]1C(=O)NC(CC1CCC1)C(=O)C(N)=O)C2(C)C)C1(C)CC1 (stereo partly drawn),101 to 1000
7,CC(C)(C)NC(=O)N[C@H](C(=O)N1C[C@H]2[C@@H]([C@H]1C(=O)NC(CC1CC1)C(=O)C(N)=O)C2(C)C)C1(C)CC1 (stereo partly drawn),101 to 1000
8,CC(C)(C)[C@H](NC(=O)NC(C)(C)C(F)(F)F)C(=O)N1C[C@H]2[C@@H]([C@H]1C(=O)NC(CC1CC1)C(=O)C(N)=O)C2(C)C (stereo partly drawn),1 to 100
9,CC(C)(C)[C@H](NC(=O)NC(C)(C)C(F)(F)F)C(=O)N1C[C@H]2[C@@H]([C@H]1C(=O)NC(CC1CCC1)C(=O)C(N)=O)C2(C)C (stereo partly drawn),1 to 100
10,CC(C)(C)OC(=O)N[C@H](C(=O)N1C[C@H]2[C@@H]([C@H]1C(=O)NC(CC1CCC1)C(=O)C(N)=O)C2(F)F)C(C)(C)C (stereo partly drawn),101 to 1000
11,COC[C@@H](NC(=O)N[C@H](C(=O)N1C[C@H]2[C@@H]([C@H]1C(=O)NC(CC1CCC1)C(=O)C(N)=O)C2(C)C)C(C)(C)C)C(C)(C)C (stereo partly drawn),101 to 1000
12,CN(C)C(=O)[C@@H](NC(=O)CNC(=O)C(=O)C(CCC(F)(F)F)NC(=O)[C@@H]1[C@H]2CC(C)(C)O[C@H]2CN1C(=O)[C@@H](NC(=O)NC(C)(C)C)C(C)(C)C)c1ccccc1 (stereo partly drawn),1 to 100
13,CN(C)C(=O)[C@@H](NC(=O)CNC(=O)C(=O)C(CC1CC1)NC(=O)[C@@H]1[C@H]2CC(C)(C)O[C@H]2CN1C(=O)[C@@H](NC(=O)OC(C)(C)C)C(C)(C)C)c1ccsc1 (stereo partly drawn),1 to 100
14,CC(C)(C)NC(=O)N[C@H](C(=O)N1C[C@H](Cl)C[C@H]1C(=O)NC(CC1CCC1)C(=O)C(N)=O)C(C)(C)C (stereo partly drawn),101 to 1000
15,CN(C)C(=O)[C@@H](NC(=O)CNC(=O)C(=O)C(CC1CCC1)NC(=O)[C@@H]1[C@H]2CC(C)(C)O[C@H]2CN1C(=O)[C@@H](NC(=O)OC(C)(C)C)C1(C)CCCCC1)c1ccccc1 (stereo partly drawn),1 to 100
16,CN(C)C(=O)C(NC(=O)CNC(=O)C(=O)C(CC1CC1)NC(=O)[C@@H]1[C@@H]2[C@H](CN1C(=O)[C@@H](NC(=O)OC(C)(C)C)C(C)(C)C)C2(F)F)c1ccccc1 (stereo partly drawn),1 to 100
17,CC(C)(C)NC(=O)N[C@H](C(=O)N1C[C@H]2[C@@H]([C@H]1C(=O)NC(CC1CC1)C(=O)C(N)=O)C2(F)F)C(C)(C)C (stereo partly drawn),101 to 1000
18,CC(C)(C)NC(=O)N[C@H](C(=O)N1C[C@H]2[C@@H]([C@H]1C(=O)NC(CC1CCC1)C(=O)C(N)=O)C2(F)F)C(C)(C)C (stereo partly drawn),101 to 1000
19,CN(C)C(=O)C(NC(=O)CNC(=O)C(=O)C(CC1CC1)NC(=O)[C@@H]1[C@@H]2[C@H](CN1C(=O)[C@@H](NC(=O)NC(C)(C)C)C(C)(C)C)C2(F)F)c1ccccc1 (stereo partly drawn),1 to 100
